Measurements as given in the antibiotic and cytotoxicity screens of Wong et al. (2023).
The other results are listed elsewhere or left out.

Legend:
HSkMC = human skeletal muscle cells; assay: cytotoxicity call (relative viability < 0.9); settings: 10 µM
HepG2 = assay: cytotoxicity call (relative viability < 0.9); settings: 10 µM
S. aureus RN4220 = assay: growth inhibition call (relative growth <= 0.2); settings: 50 µM

C[C@@H]1CN([C@H](C)CO)C(=O)c2ccccc2-c2ccccc2CO[C@H]1CN(C)C(=O)c1cc(Cl)cc(Cl)c1
inactive: cytotoxicity call (HSkMC) | cytotoxicity call (HepG2) | growth inhibition call (S. aureus RN4220)

Cc1noc(C)c1NC(=O)N(C)C[C@H]1Oc2c(NS(=O)(=O)c3cn(C)cn3)cccc2C(=O)N([C@@H](C)CO)C[C@@H]1C
inactive: cytotoxicity call (HSkMC) | cytotoxicity call (HepG2) | growth inhibition call (S. aureus RN4220)

C/C(=C/C(=O)N1CCN(C)CC1)C(=O)O
inactive: cytotoxicity call (HSkMC) | cytotoxicity call (HepG2) | growth inhibition call (S. aureus RN4220)

Cc1noc(C)c1NC(=O)N(C)C[C@H]1Oc2c(NC(=O)C3CC3)cccc2C(=O)N([C@H](C)CO)C[C@H]1C
inactive: cytotoxicity call (HSkMC) | cytotoxicity call (HepG2) | growth inhibition call (S. aureus RN4220)

COc1ccc(CN(C)C[C@@H]2OCCCC[C@@H](C)Oc3ccc(NC(=O)Nc4ccccc4)cc3C(=O)N([C@H](C)CO)C[C@H]2C)cc1
inactive: cytotoxicity call (HSkMC) | cytotoxicity call (HepG2) | growth inhibition call (S. aureus RN4220)

Cc1noc(C)c1NC(=O)N[C@H]1C=C[C@H](CC(=O)NCCCN(C)C)O[C@H]1CO
inactive: cytotoxicity call (HSkMC) | cytotoxicity call (HepG2) | growth inhibition call (S. aureus RN4220)

O=C(N[C@@H]1CC[C@H](CC(=O)N2CCOCC2)O[C@@H]1CO)c1ccc2c(c1)OCO2
inactive: cytotoxicity call (HSkMC) | cytotoxicity call (HepG2) | growth inhibition call (S. aureus RN4220)

CC(C)NC(=O)Nc1ccc2c(c1)C(=O)N([C@H](C)CO)C[C@@H](C)[C@H](CN(C)C(=O)C1CCCCC1)OCCCC[C@@H](C)O2
inactive: cytotoxicity call (HSkMC) | cytotoxicity call (HepG2) | growth inhibition call (S. aureus RN4220)

CC(C)NC(=O)Nc1ccc2c(c1)C(=O)N([C@H](C)CO)C[C@@H](C)[C@@H](CN(C)S(=O)(=O)c1cn(C)cn1)OCCCC[C@H](C)O2
inactive: cytotoxicity call (HSkMC) | cytotoxicity call (HepG2) | growth inhibition call (S. aureus RN4220)

CSC[C@@H](O)Cn1[nH]c(=O)ccc1=O
inactive: cytotoxicity call (HSkMC) | cytotoxicity call (HepG2) | growth inhibition call (S. aureus RN4220)
